# Data taken from PubChem BioAssay AID686979 (National Center for Advancing Translational Sciences (NCATS), 2013).
# The campaign covered roughly 420,000 compounds. About 50,000 (12%) were called active. Inconclusive results, whose numbers are uncertain, are shown with a selection of clear calls. Calls follow the shape of the dose curve; as a rule, active = well fitted inhibition curve with a large enough effect; inconclusive = small, poorly fitted or top-dose-only effect; inactive = flat fitted curve, though single readings scatter. Potencies of inconclusive entries are left out as doubtful fits.
# Assay: qHTS for Inhibitors of human tyrosyl-DNA phosphodiesterase 1 (TDP1): qHTS in cells in presence of CPT; also: nearly all actives have a fitted effect of over 55% in size
# Conditions: chicken DT40 Tdp1-/-;hTDP1 cells + 20 nM CPT, ATP luminescence, 48 h; activity change, negative = growth inhibition: at 46.2 µM (top of the series)
# Summary of the method: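 Chicken DT40 Tdp1-/- cells stably complemented with human TDP1 were seeded at 400 cells/well in medium containing 20 nM camptothecin, exposed to pin-transferred compounds, and grown at 37 °C for at least 48 hr. Viability was read as ATP luminescence.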
# % is scaled to controls: 0 for no effect and ±100 for the full control effect; potency is read from the fitted curve at half-maximal effect; tags tell the direction and shape of the fitted curve.
Compound,"activity change, negative = growth inhibition",Potency
Cc1ccc(S(=O)(=O)N2CCN(CC(=O)NCC3(N4CCOCC4)CCCCC3)CC2)cc1,inactive: -4.36%,–
COC(=O)c1ccc(COc2cccc3c2OC(C)(C)C3)cc1,–,"inconclusive [inhibitor, single point]"
Cc1ccc2nc(-c3ccc(O)cc3)c(Nc3ccc4c(c3)OCO4)n2c1,–,active: 23.1 µM
CC(C)c1nc2sc3c(c2c(=O)o1)CCCC3,–,"inconclusive [inhibitor, full curve]"
COc1ccc(CN2CCC(n3nccc3NC(=O)CCc3ccccc3)CC2)c(C)c1C,–,"inconclusive [inhibitor, single point]"
Cc1cc(NC(=O)C(C)C)cc(-c2nc3ncccc3o2)c1O,–,"inconclusive [inhibitor, single point]"
Cc1cc(C(=O)Nc2nnc(C3CCCCC3)s2)cs1,–,"inconclusive [inhibitor, partial curve]"
Cc1ccc(S(=O)(=O)N2CCOCC2)cc1NC(=O)COC(=O)c1cc[n+]([O-])cc1,inactive: -2.41%,–
O=C(/C=C(/c1ccc(Cl)cc1)n1cncn1)c1ccccc1,–,"inconclusive [inhibitor, single point]"
CCOC(=O)[C@]12CCC=C1N(Cc1ccccc1)C(=O)[C@H](CC(=O)NCc1ccccc1)C2,–,"inconclusive [inhibitor, single point]"
CC1CC(C)CN(S(=O)(=O)N2CCCC(C(=O)NC3CCCCC3C)C2)C1 (stereo not given),inconclusive: -34.7% [inhibitor],–
Cc1ccn(CC(=O)NC2CCCN(Cc3ccc(CC(C)C)cc3)C2)n1 (stereo not given),–,"inconclusive [inhibitor, single point]"
Cc1oc(-c2ccc(Cl)cc2)nc1CS(=O)CC(=O)NCc1ccc(Cl)cc1 (stereo not given),–,"inconclusive [inhibitor, single point]"
Cc1ccc(C(=O)NCC(C)NC(=O)c2ccc(C)c([N+](=O)[O-])c2)cc1[N+](=O)[O-] (stereo not given),–,"inconclusive [inhibitor, single point]"
Cn1c(=O)c2c(SCC(=O)NCc3ccco3)nc(CC(C)(C)C)nc2n(C)c1=O,–,"inconclusive [inhibitor, single point]"
COc1ccc(NC(=O)CSc2n[nH]c(CNc3cccc(C)c3)n2)cc1,inactive: 2.82%,–
CC(C)[C@H](NC(=O)N1c2ccccc2NC(=O)[C@@H]1C(C)C)C(=O)N[C@@H](Cc1c[nH]c2ccccc12)C(=O)O,inactive: -5.99%,–
CC(=O)n1c(-c2ccccc2)c(CO)c2ccccc21,inconclusive: -31.6% [inhibitor],–
COC(CNC(=O)c1ccc(N2CCc3ccccc32)c([N+](=O)[O-])c1)OC,–,"inconclusive [inhibitor, single point]"
CC1=C(C(=O)OCc2ccccc2)C(c2ccccc2OC(F)F)NC(=O)N1 (stereo not given),–,active: 29.1 µM
CCc1ccc(NC(=O)CSc2nc3n[nH]c(C)c3c(=N)n2-c2ccccc2C)cc1,–,"inconclusive [inhibitor, partial curve]"
CC(C)NC(=O)CS(=O)(=O)c1ccccc1,inactive: -1.83%,–
Cc1cc2nc(-c3cc(NC(=O)c4cc5ccccc5o4)ccc3Cl)oc2cc1C,–,"inconclusive [inhibitor, single point]"
COc1ccccc1N1CCN(C(CNC(=O)C(=O)NCCCN(C)C)c2cccnc2)CC1 (stereo not given),inactive: -10.7%,–

Compound,"activity change, negative = growth inhibition",Potency
COc1ccc(N(CC(=O)NCCc2cccc(C)c2)S(=O)(=O)c2c(C)nn(C)c2C)cc1,–,"inconclusive [inhibitor, single point]"
Cc1nc(C)c(C(=O)N/N=C/c2c[nH]c3ccccc23)s1,–,"inconclusive [inhibitor, partial curve]"
O=C(O)c1cc([N+](=O)[O-])cc2c1nnn2O,–,"inconclusive [inhibitor, single point]"
O=C(c1ccco1)[C@@H]1[C@@H]2C(=O)N(c3ccc(Br)cc3)C(=O)[C@@H]2C2c3ccccc3C=CN21 (stereo not given in full),–,"inconclusive [inhibitor, single point]"
Fc1cc(Cl)ccc1Nc1nc(NCc2ccccc2)nc2ccsc12,–,active: 11.6 µM
COc1ccc(-c2nc3cnc(N4CCNCC4)nc3n(C3CC3)c2=O)cc1,–,"inconclusive [inhibitor, single point]"
CCOC(=O)c1c2ccccc2[n+]([O-])n1[C@@H](C)C(N)=O,–,active: 20.6 µM
O=C(CCc1nc(-c2ccccc2Cl)no1)NCCc1ccccc1,–,"inconclusive [inhibitor, single point]"
COc1ccc(C)cc1NC(=O)CSc1nc2ccccc2nc1N1CCCCC1,–,"inconclusive [inhibitor, single point]"
Cc1ccc(NS(=O)(=O)c2cc(OCC(N)=O)c(C)cc2Cl)cc1C,–,active: 20 µM
COc1ccc(/C=N/NC(=O)c2cc(C(C)(C)C)[nH]n2)cc1COc1ccc(F)cc1F,–,"inconclusive [inhibitor, single point]"
CC1CCc2cc(F)ccc2N1S(=O)(=O)c1ccc(Cl)nc1 (stereo not given),–,active: 14.6 µM
CCN(CC)S(=O)(=O)c1cc(NC(=O)C2CSC3(C)CCC(=O)N23)ccc1C (stereo not given),–,"inconclusive [inhibitor, single point]"
CC(C)C[C@H]1CN([C@@H](Cc2ccc(O)cc2)CN2CCC[C@H]2CN2C(=O)C(=O)NC[C@@H]2Cc2ccccc2)C(=O)C(=O)N1CC1CCCCCC1,–,"inconclusive [inhibitor, single point]"
Cc1ccc(CN(Cc2ccccn2)C(=O)Nc2c(F)cccc2F)cc1,–,"inconclusive [inhibitor, single point]"
COc1nc(N(C)S(=O)(=O)c2ccc(C)cc2)nc(C)c1Br,–,"inconclusive [inhibitor, partial curve]"
O=Cc1cccc2ccc3cccc(C(=O)O)c3c12,inactive: 4.37%,–
CC(=O)c1cccc(-c2ccnc3c2CC(C(=O)NCCC(F)(F)F)O3)c1 (stereo not given),–,"inconclusive [inhibitor, single point]"
COc1ccc(C(=O)N2CCC3(CC2)CCN(c2cccc(-c4ccccc4)c2)CC3)cc1,–,active: 0.116 µM
CCC(C)NCC(O)COCc1ccc(Cl)cc1 (stereo not given),–,"inconclusive [inhibitor, single point]"
CC(C)(C)OC(=O)NCCc1nnc(S(=O)(=O)Cc2ccc(Cl)cc2Cl)o1,–,active: 1.64 µM
CCCS(=O)(=O)NC(=O)C1(C)CCN(C(=O)c2ccc(C(F)(F)F)nc2C)C1 (stereo not given),inactive: -5.39%,–
CCCCCCSc1cc(-c2nc3cc(C)ccn3c2NC2CCCCC2)ccc1OC,–,"inconclusive [inhibitor, single point]"
O=C(c1noc2c1CCCC2)N1CCCC(N2CCN(c3ccccc3F)CC2)C1 (stereo not given),–,active: 29.1 µM

Compound,"activity change, negative = growth inhibition",Potency
Cc1nc(=O)c(-c2ccccc2)c(C)n1-c1ccc(Br)cc1,inactive: -15.6%,–
O=C1Nc2c(Br)cc(Br)cc2C1(O)N1CCOCC1 (stereo not given),–,active: 5.17 µM
CC1CCN(CCC(=O)Nc2ccccc2)CC1,inactive: -1.21%,–
CCOc1ccc(-c2c(C)nn3c(C)c(C(=O)Nc4ccccc4C(=O)OC)cnc23)cc1OCC,inconclusive: -23% [inhibitor],–
COCCNC(=O)C1(C)CCCN(C(=O)c2ccc3ccccc3c2)C1 (stereo not given),inactive: -27.1%,–
COc1ccc(NS(=O)(=O)c2ccc(C)c(C(=O)N3CCCCCCC3)c2)cc1,–,"inconclusive [inhibitor, single point]"
O=C(Nc1ccc(NC(=O)C2CC2)cc1)c1cccs1,inactive: -24.7%,–
CCC1Nc2ncnc(N3CCN(c4ccccc4)CC3)c2N(Cc2ccc(Br)cc2)C1=O (stereo not given),–,active: 20.6 µM
O=C(COC(=O)c1cc(S(=O)(=O)N2CCOCC2)ccc1O)NCc1ccc2c(c1)OCO2,inactive: -10.3%,–
CC12CCCCN1CCCc1c2[nH]c2ccccc12 (stereo not given),inconclusive: -32.3% [inhibitor],–
COC(=O)c1cccc(Nc2c(-c3ccc(O)c(OC)c3)nc3nc[nH]n23)c1,–,"inconclusive [inhibitor, single point]"
CCc1nc(SCC(=O)Nc2ccccc2OC)c2c(C)c(C)sc2n1,–,"inconclusive [inhibitor, single point]"
Oc1ccc(N2CCN(CC(O)c3ccccc3)CC2)cc1 (stereo not given),–,"inconclusive [inhibitor, single point]"
Cc1ccc(NC(=O)CSc2nccn(-c3ccc4c(c3)OCCO4)c2=O)cc1,–,active: 23.1 µM
CCOc1ccc(NC(=O)C2Cc3ccccc3N2C(=O)c2ccccc2)cc1 (stereo not given),–,active: 23.1 µM
CCOC(=O)c1cnc(SC2CCc3ccccc3C2=O)nc1N (stereo not given),–,"inconclusive [inhibitor, partial curve, poor fit]"
CCN(c1ccccc1)S(=O)(=O)c1ccc(OC)c(NC(=O)COc2ccc(C(C)=O)cc2)c1,inactive: -17.6%,–
O=C(NC1=NCCS1)c1sc2cc(Cl)cc(Cl)c2c1Cl,–,"inconclusive [inhibitor, partial curve]"
N#Cc1nc(N2CCCC2)nc(N2CCCC2)n1,–,active: 12.6 µM
C[C@H](O)[C@@H]1CN2CCc3c([nH]c4ccccc34)[C@@H]2C[C@@H]1N(C)Cc1cc(Cl)cc(Cl)c1,–,"inconclusive [inhibitor, single point]"
COc1ccc2c(c1)CCc1c(C(=O)Nc3cc(C)ccc3O)noc1-2,–,"inconclusive [inhibitor, partial curve]"
CCOC(=O)c1c(NC(=O)C2=C(C)NC(=S)NC2c2ccc(F)cc2F)sc(C)c1C (stereo not given),–,"inconclusive [inhibitor, single point]"
